Laboratory results reported in PubChem BioAssay AID445 (National Center for Advancing Translational Sciences (NCATS), 2006).
The whole screen tested about 110,000 compounds, of which about 40 (0.04%) were called active. Inconclusive means that the source gave no clear call. Such entries were picked first, then a sample of the others. Calls come from the whole dose curve; as a rule, active = well fitted curve in the direction sought with a large enough effect in the signal ratio (not every such curve was filed as active); inconclusive = small, poorly fitted or top-dose-only effect, or a change in a side signal; inactive = flat fitted curve, though single readings scatter; the % refers to the signal ratio. Where the call is inconclusive, the potency comes from a doubtful curve fit.

experiment: IkB Signaling; conditions: ABC-DLBCL IkBa-CBG/CBR dual luciferase ratio (green luciferase fused to IkBa over red control in OCI-Ly3 lymphoma cells), 4 h; IkBa stabilization activation: at 57.1 µM (top of the series), scaled: untreated 0%, proteasome inhibitor 100% unless noted;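 for IkBa stabilization activation: 0% = basal untreated cells and 100% = reference inhibitor full response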
Method in brief: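 Luminescence ratio of IκBα-fused green versus native red beetle luciferase in OCI-Ly3 cells, 4 h post-doxycycline with compound; red signal alone, scaled from basal (0%) to zero light (-100%), flagged nonspecific or cytotoxic effects.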
Potency is the fitted concentration of half-maximal effect.

Row | Structure (SMILES) | IkBa stabilization activation | Potency
1 | CCOCCOC(=O)c1[nH]c2c(c1C)C(=O)CC(c1ccc(N(C)C)cc1)C2 (stereo not given) | inactive: 4.42% | –
2 | CCOc1ccc(-c2cc3c(=O)n(Cc4nc(-c5cccc(OC)c5OC)oc4C)ccn3n2)cc1Cl | inactive: 0.155% | –
3 | CCC(=O)N1CCc2cc(S(=O)(=O)CCC(=O)N3CCN(c4cccc(C)c4)C(C)C3)ccc21 (stereo not given) | inconclusive: 2.45% [signal inhibitor] | –
4 | CC(=O)OCC(=O)NCc1ccc2c(c1)OCO2 | inactive: 0.899% | –
5 | Cc1cc(C)c(Cn2c3ccccc3c3cnn(CC(=O)NCCCc4ccccc4)c(=O)c32)c(C)c1 | inactive: 2.86% | –
6 | Cc1ccccc1Nc1c(-c2ccsc2)nc2c(C)cccn12 | inconclusive: -6.1% [signal inhibitor] | –
7 | COCCNc1nc(C(C)(C)C)nc2c1nnn2Cc1ccccc1Cl | inactive: 0.395% | –
8 | O=C(NCc1cccc(Cl)c1)c1cccn1-c1nnc(N2CCCC2)s1 | inconclusive: 0.503% [signal inhibitor] | –
9 | O=C(CN1C(=O)NC2(CCCC2)C1=O)Nc1nc(-c2ccc(F)cc2)cs1 | inconclusive: 4.72% [signal inhibitor] | –
10 | O=C(Nc1ccc(CN2CCOCC2)cc1)c1cccs1 | inactive: 2.18% | –
11 | Cc1ccccc1C(=O)Nc1nnc(SCc2cc(=O)c3c(C)ccc(C)c3[nH]2)s1 | inconclusive: 0.812% [signal inhibitor] | –
12 | CC1CCN(S(=O)(=O)c2cc(C(=O)NCc3ccc(F)cc3)n(C)c2)CC1 | inconclusive: 2.46% [signal inhibitor] | –
13 | CCc1ccccc1NS(=O)(=O)c1ccc2[nH]cc(C(=O)NCc3ccco3)c(=O)c2c1 | inconclusive: 4.53% [signal inhibitor] | –
14 | CC(=O)c1ccc(NC(=O)CCc2c(C)nn(-c3ccc4nncn4n3)c2C)cc1 | inactive: 4.49% | –
15 | CCC(=O)Nc1nonc1-c1nc2ccccc2n1N(C(=O)CC)C(=O)CC | inactive: -1.07% | –
16 | CSc1ccc(CCNC(=O)c2cc3n(n2)CCCN(Cc2ccc(C)cc2)C3=O)cc1 | inconclusive: 0.703% [signal inhibitor] | –
17 | O=C(CCCSc1nc(-c2ccco2)cc(C(F)(F)F)n1)Nc1ccc2c(c1)OCO2 | inconclusive: 1.96% [signal inhibitor] | –
18 | O=C(Nc1sc2c(c1C(=O)NCc1ccccc1)CCCC2)c1cc(=O)c2cc(Cl)ccc2o1 | inconclusive: 1.32% [signal inhibitor] | –
19 | CCc1ccccc1N1CC(c2nc3ccccc3n2Cc2cccc(C)c2)CC1=O (stereo not given) | inconclusive: -1.2% [signal inhibitor] | –
20 | CCOc1ccc(S(=O)(=O)NCCc2sc(-c3ccc(C)cc3)nc2C)cc1 | inconclusive: -0.975% [signal inhibitor] | –
21 | CCOc1ccccc1N1CC(c2nc3ccccc3n2CCCOc2ccccc2OC)CC1=O (stereo not given) | inactive: 2.59% | –
22 | CCOC(=O)c1c(C)[nH]c(C)c1C(=O)COc1ccc(NC(=O)c2ccco2)cc1 | inactive: -0.457% | –
23 | O=C(CSc1ncnc2sc3c(c12)CCCC3)c1ccco1 | inactive: 1.57% | –
24 | COc1ccc(Cl)c(N2CCN(CCCNC(=O)Nc3ccc(C)cc3)CC2)c1 | inconclusive: 3.4% [signal inhibitor] | –
25 | Cn1c(C(=O)NCc2ccc3c(c2)OCO3)cc2sccc21 | inactive: 1.85% | –

Row | Structure (SMILES) | IkBa stabilization activation | Potency
26 | O=C(Nc1cccnc1Cl)c1cc(-c2ccc(Cl)cc2)on1 | inconclusive: 9.02% [signal inhibitor] | –
27 | c1ccc2c(c1)CCN(Cc1nnnn1Cc1ccc3c(c1)OCO3)C2 | inactive: -0.901% | –
28 | O=c1c2ccccc2n2c(-c3ccc(F)c(F)c3)nnc2n1CCc1ccccc1 | inconclusive: -1.66% [signal inhibitor] | –
29 | CCc1ccc(NC(=O)c2noc3c2CCCCC3)cc1 | inactive: 0.995% | –
30 | CCOC(=O)c1c(S(=O)(=O)N2CCCC(C(=O)Nc3ccc(C)cc3C)C2)c(C)n(CC)c1C (stereo not given) | inconclusive: -0.499% [signal inhibitor] | –
31 | O=C(CSc1nnc(Cc2cccs2)n1C1CCCCC1)N1CCCc2ccccc21 | inconclusive: 7.55% [signal inhibitor] | –
32 | CCOc1ccc(S(=O)(=O)Nc2ccc3c(c2)c(C(C)=O)c(C)n3S(=O)(=O)c2ccc(OCC)cc2)cc1 | inconclusive: 12.4% [signal inhibitor] | –
33 | Cc1cc(C)c(NC(=O)Cn2c(=O)n(CCC(=O)NCc3ccc4c(c3)OCO4)c(=O)c3ccccc32)c(C)c1 | inactive: 3.26% | –
34 | CCOC(=O)C1CCN(C(=O)CSc2c3c(nc4ccc(Cl)cc24)CCCC3)CC1 | – | inconclusive: 25.1 µM [signal inhibitor]
35 | COC(=O)C1=CN(C(C)C)C=C(C(=O)OC)C1c1cccc(OC)c1 | inactive: 1.01% | –
36 | COc1ccc(-n2c(Cc3cccn3C)nnc2SCC(=O)Nc2cccc(F)c2)cc1 | inactive: 6.35% | –
37 | CC[n+]1ccc(C)c2cc(S(=O)C(F)(F)F)ccc21 (stereo not given) | inactive: -0.174% | –
38 | O=C(NCc1ccc(Cl)cc1)C(=O)NCC(c1ccco1)S(=O)(=O)c1cccs1 (stereo not given) | inconclusive: 3.45% [signal inhibitor] | –
39 | CCCCNC(=O)c1ccc2c(=O)n(-c3ccccc3)c(=O)[nH]c2c1 | inconclusive: 1.57% [signal inhibitor] | –
40 | Cc1cc(C)n(-c2nc(NCCO)c3c4c(sc3n2)CCCC4)n1 | inactive: -1.66% | –
41 | O=C(Nc1ccc2oc(-c3ccccc3Cl)nc2c1)c1cncc(Br)c1 | inactive: 0.666% | –
42 | Cc1nc2ccc3nc(NC(=O)c4ccc5c(c4)OCCO5)sc3c2s1 | inactive: 6.27% | –
43 | CCc1ccc(OCc2nc(-c3ccccn3)no2)c(Br)c1 | inactive: 8.82% | –
44 | CSc1ccc(S(=O)(=O)NCCOc2ccccc2C)cc1 | inconclusive: 2.5% [signal inhibitor] | –
45 | c1ccc(OCCSc2nnnn2-c2ccccc2)cc1 | inconclusive: 4.16% [signal inhibitor] | –
46 | Cc1ccc(-c2nnc(N3CCN(C(=O)CN4C(=O)c5ccccc5C4=O)CC3)c3ccccc23)cc1 | inactive: 1.4% | –
47 | COc1cc(OC)cc(C(=O)Nc2ccc3nc(N4CCC(C)CC4)cc(C)c3c2)c1 | inconclusive: 0.665% [signal inhibitor] | –
48 | O=C(CCNc1ccc(Cl)c(C(F)(F)F)c1)c1ccco1 | inconclusive: -0.334% [signal inhibitor] | –
49 | Cc1noc(C)c1S(=O)(=O)N1CCC(C(=O)N2CCN(c3ccccc3Cl)CC2)CC1 | inconclusive: 1.78% [signal inhibitor] | –
50 | CCCCCCn1c(CN2CCC(C)CC2)nc2c1c(=O)n(C)c(=O)n2C | inactive: -1.84% | –

Row | Structure (SMILES) | IkBa stabilization activation | Potency
51 | Cc1ccc2c(CC(=O)Nc3cc(C(F)(F)F)ccc3Cl)coc2c1C | inconclusive: 0.289% [signal inhibitor] | –
52 | CCC12CN3CC(CC)(CN(C1)C3c1ccc(OCc3ccccc3)cc1)C2=O (stereo not given) | inconclusive: 1.54% [signal inhibitor] | –
53 | Cc1ccc2oc(=O)n(CCNC(=O)Nc3ccccc3Cl)c2c1 | inactive: 0.271% | –
54 | O=S(=O)(c1cccs1)N1CCC(Cc2ccccc2)CC1 | inconclusive: 4.79% [signal inhibitor] | –
55 | Cc1[nH]nc2nc(SCC(=O)NCC3CCCO3)n(-c3ccc(Br)cc3)c(=N)c12 (stereo not given) | inactive: -1.65% | –
56 | O=C(Cn1nnc2sc3c(c2c1=O)CCCC3)Nc1ccc(F)c(Cl)c1 | – | inconclusive: 20 µM [signal inhibitor, partial curve]
57 | COc1cccc(NC(CNS(=O)(=O)c2ccc(C)cc2)c2ccccc2)c1 (stereo not given) | inconclusive: 2.15% [signal inhibitor] | –
58 | CCN1C(=O)c2ccccc2Sc2ccc(NC(=O)c3ccc(C)c(F)c3)cc21 | inconclusive: 1.3% [signal inhibitor] | –
59 | O=C1/C(=C/Nc2ccc3c(c2)OCO3)CCc2ccccc21 | – | inconclusive: 25.1 µM [signal inhibitor, partial curve]
60 | Cc1cc(-c2ccc(C)c(S(=O)(=O)NCc3ccc(Cl)cc3)c2)on1 | inconclusive: 0.0946% [signal inhibitor] | –
61 | N#Cc1ccccc1NC(=O)CSc1nnc(-c2ccccc2)n1-c1ccccc1 | inconclusive: 0.854% [signal inhibitor] | –
62 | CCc1c(C)nc2nncn2c1Nc1ccc(C)c(F)c1 | inconclusive: 0.841% [signal inhibitor] | –
63 | COc1ccc(-c2cc(C(=O)N3CC4(C)CC3CC(C)(C)C4)no2)cc1OC (stereo not given) | – | inconclusive: 15.8 µM [signal inhibitor, partial curve]
64 | Cc1ccccc1CNC(=O)CCCn1nc(C)c2sc3ccccc3c2c1=O | inactive: -0.00104% | –
65 | COc1ccccc1N(CC(=O)NCCSCc1ccc(Cl)cc1)S(C)(=O)=O | inconclusive: -1.25% [signal inhibitor] | –
66 | COc1cccc(CNC(=O)c2c(O)nc3ccccn3c2=O)c1 | inconclusive: -1.34% [signal inhibitor] | –
67 | CCOC(=O)CN1C(=O)C(C)(C)Oc2ccc(C(=O)Nc3ccccc3)cc21 | inconclusive: 0.812% [signal inhibitor] | –
68 | COc1cc(SC)ccc1C(=O)Nc1ccon1 | inactive: -1.67% | –
69 | CCOc1ccc(N2CC(c3nc4ccccc4n3CC(C)C)CC2=O)cc1 (stereo not given) | inconclusive: -0.591% [signal inhibitor] | –
70 | CCOC(=O)C1C(=O)CC(C)(O)C(C(=O)OCC)C1/C=C/c1ccccc1 (stereo not given) | inactive: 2.24% | –
71 | COc1cc(-c2noc(-c3ccc(NCCc4ccccc4)c([N+](=O)[O-])c3)n2)cc(OC)c1OC | inconclusive: 0.294% [signal inhibitor] | –
72 | COCC(=O)N1CCc2cc(OC)c(OC)cc2C1COc1ccc2c(C)cc(=O)oc2c1 (stereo not given) | inactive: -3.17% | –
73 | N#CC(C#N)=c1ccc2c(c1)NC1(CCCCC1)N=2 | – | inconclusive: 10 µM [rising, partial curve]
74 | COc1cc(NC(=O)CCNS(=O)(=O)c2ccc3c(c2)CCN3C(=O)C2CC2)cc(OC)c1 | inactive: 5.51% | –
75 | Cc1ccc(C)c(N2CCN(C(=O)c3ccc4c(Cl)c5c(nc4c3)CCCC5)CC2)c1 | inconclusive: 1.74% [signal inhibitor] | –
